This note sets out measurements from PubChem BioAssay AID1346428 (National Center for Advancing Translational Sciences (NCATS), 2018).

Among all 48,000 compounds or so, about 1,200 (2.5%) were called active. About 2% were inconclusive and are not listed.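 Rule for the calls: active = activation of at least 60% and not above a set upper limit (about 1 call in 100 departs from these limits); inconclusive = activation of 40% to 60%, or above that upper limit; inactive = activation under 40%.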 This is one part of the list.

The assay has as its target Probable G-protein coupled receptor 32 (Homo sapiens) (UniProt O75388). Put plainly: qHTS for Agonists of Human Resolvin D1 Receptor DRV1. Note: 0% is about no effect. The settings on record: CHO-K1 GPR32 beta-arrestin PathHunter luminescence, 90 min; at 76.9 µM; hits give high values; zero percent set by DMSO-only wells. An outline of the steps: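 Step 1: seed CHO-K1 GPR32 beta-arrestin cells, 2,500/well, overnight at 37 °C. Step 2: add compounds, 90 min at 37 °C. Step 3: detection reagent, 1 h ambient, then luminescence.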
Chain of UniProt O75388 (O75388 whole entry, looked up): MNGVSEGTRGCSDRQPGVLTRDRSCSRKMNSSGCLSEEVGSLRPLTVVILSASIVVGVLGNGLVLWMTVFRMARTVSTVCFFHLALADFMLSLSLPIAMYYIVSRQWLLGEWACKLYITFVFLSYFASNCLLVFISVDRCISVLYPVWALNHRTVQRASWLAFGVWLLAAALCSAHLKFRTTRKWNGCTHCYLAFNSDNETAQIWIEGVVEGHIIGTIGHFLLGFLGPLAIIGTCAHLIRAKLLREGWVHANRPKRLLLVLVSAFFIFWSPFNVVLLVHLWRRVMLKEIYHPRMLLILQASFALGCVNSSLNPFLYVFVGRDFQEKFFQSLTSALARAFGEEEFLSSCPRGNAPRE
Background: qHTS replaces the single test concentration by a dilution series.
As to `CCOc1cccc(C2c3c(oc4ccc(F)cc4c3=O)C(=O)N2CCc2ccc(OC)cc2)c1` (stereo not drawn), the activation was inactive: 10.5%.
Turning to `COc1ccc(NC(=O)C2CCN(S(=O)(=O)c3ccc4c(c3)CCCC(=O)N4)CC2)cc1Cl`, the activation was inactive: 1.95%.
The same measure for `Cc1oc(C)c2c(=O)cc(-c3ccc4c(c3)OCO4)cc(OC(=O)c3ccccc3Br)c12`: inactive: -8.78%; for `COc1cc(OC)c(NC(=O)c2cc(CN3CCOCC3)on2)cc1Cl`: inactive: -7.4%; for `CCn1ccc2cc(S(=O)(=O)N3CCCN(C(=O)NCC(C)C)CC3)ccc21`: inactive: 14.6%.
In the case of `COc1cc(/C=C(\C#N)c2nc3ccccc3c(=O)[nH]2)cc(OC)c1OC`, the activation was inactive: -0.0837%.
The same measure for `Cc1ccc(Cn2c(-c3ccccc3)nc3ccccc32)cc1`: inactive: -3.14%.
The same measure for `Cc1ccc(-c2nc3ccccc3n3c(-c4ccccc4)c4c(=O)n(C)c(=O)n(C)c4c23)cc1`: inactive: -13.8%; for `COc1ccc(S(=O)(=O)N2CCN(c3ccccc3OC)CC2)cc1-c1noc(C)n1`: inactive: -12.8%; for `CCCCNC(=O)c1cc(Sc2ccc(OCC)cc2)nc2ccccc12`: inactive: -7.14%.
As for `CCOc1ccccc1NC(=O)Cn1ccn(-c2ccccc2)c(=O)c1=O`, the figure is inactive: -5.32%.
Turning to `COc1ccccc1N1CCN(c2csc3ccc(Cl)cc3c2=O)CC1`, the activation is inactive: -37.9%.
As for `Cc1ccc(C)c(Cn2c(=O)n(CCCCC(=O)NCc3ccccc3Cl)c(=O)c3ccccc32)c1`, the figure is inactive: -8.74%.
As for `CCn1ccc2cc(S(=O)(=O)N3CCC(C(=O)NCc4cccc(C)c4)CC3)ccc21`, the figure is inactive: 7.58%; as for `O=C(NCCSCc1ccc(Cl)cc1)C1CCN(S(=O)(=O)Cc2ccccc2)CC1`, inactive: 9.95%.
The same measure for `CCn1cc(C(=O)NCc2ccc(C)cc2)c(=O)c2cc(S(=O)(=O)N3CCC(C)CC3)ccc21`: inactive: 1.45%.
Regarding `Cc1ccc(-c2c(C(=O)Nc3ccc(F)c(F)c3)oc(=O)c3ccccc23)cc1`, the activation is inactive: -6.5%.
The same measure for `CN(C)c1ccc(CNC(=O)c2cc3cc(S(=O)(=O)N4CCCCC4)ccc3n2C)cc1`: inactive: -29.4%; for `O=C(CN1C(=O)C2CCCCN2c2ccc(C(=O)N3CCCC3)cc21)NCc1cccc(Cl)c1` (stereo not drawn): inactive: -28.8%.
The same measure for `CC(=O)[C@H]1CC[C@H]2[C@@H]3C[C@H](C)C4=CC(=O)CC[C@]4(C)[C@H]3[C@@H](O)C[C@]12C`: inactive: 26.4%; for `Cc1ccc(Cl)c2sc(NC(=O)CS(=O)(=O)c3ccc(Cl)cc3)nc12`: inactive: 7.15%; for `CCOc1ccc(CNS(=O)(=O)c2c(C(=O)N3CCCCCC3)c(C)n(C)c2C)cc1OC`: inactive: -8.62%.
For `CCOC(=O)OC(C)OC1=C(C(=O)Nc2ccccn2)N(C)S(=O)(=O)c2ccccc21` (stereo not drawn), the activation is inactive: -11.4%.
For the compound `CCOC(=O)c1ccccc1NC(=O)c1sc2ncn(Cc3cccc(F)c3)c(=O)c2c1C`, the activation is inactive: -12.7%.
The same measure for `O=C(O)c1ccc(-n2c(/C=C\c3ccc(O)cc3)nc3ccccc3c2=O)cc1`: inactive: 1.56%.
The same measure for `Cc1ccc(C2=Nc3ccccc3N(CC(=O)NCc3ccc(F)cc3)C(=O)C2)cc1C`: inactive: -8.35%; for `COc1ccc(/C=C(\C#N)c2nc(-c3cc4c(ccc5ccccc54)oc3=O)cs2)cc1O`: inactive: -2.85%.
As for `CCn1cc(C(=O)O)c(=O)c2cnc(N3CCCC3)nc21`, the figure is inactive: -1.63%; as for `COc1ccc(C(=O)Nc2cccc(OCc3cc(=O)n4c5c(sc4n3)CCCC5)c2)cc1`, inactive: -2.38%; as for `Cn1c(=O)c2c(nc3n(-c4ccc(O)cc4)c(-c4ccc(Br)cc4)cn23)n(C)c1=O`, inactive: -2.36%.
`COc1cn(CC(=O)Nc2cccc(C)c2C)c(CN2CCCCC2)cc1=O`: the activation is inactive: -0.948%.
As for `Cc1ccc(C)c(NC(=O)CSc2c3c(nc4ccc(Cl)cc24)CCCC3)c1`, the figure is inactive: -10.6%; as for `COc1ccc(OC)c(S(=O)(=O)NCc2cccn2Cc2cccc(C)c2)c1`, inactive: -21.2%; as for `COC(=O)c1sc(NC(=O)/C=C/c2ccc(OC)c(OC)c2)c(C(=O)OC)c1C`, inactive: -15.6%.
Regarding `COc1ccc(CNC(=O)CSc2nc3ccccc3nc2Cc2ccccc2OC)cc1`, the activation is inactive: -11.6%.
Turning to `COc1ccc(OCc2nc3c4c(-c5ccccc5)c(-c5ccccc5)oc4ncn3n2)cc1`, the activation is inactive: -5.01%.
As for `COc1cccc(C(=O)c2cn(CC(=O)NCc3ccccc3)c3nc(C)ccc3c2=O)c1`, the figure is inactive: -9.25%; as for `COc1ccccc1-c1cc(C(=O)Nc2ccccc2C(F)(F)F)no1`, inactive: 35.9%; as for `COc1ccccc1NC(=O)CSc1nc2ccccc2c2nc(-c3ccccc3)nn12`, inactive: -8.13%.
The same measure for `COC(=O)c1cc2c(cc1NC(=O)c1cnn(-c3ccc(C)cc3)c1-n1cccc1)OCO2`: inactive: -10.1%; for `CC(C)NC(=O)CCCN1C(=O)CCn2nc(-c3cccn3C)cc21`: inactive: -5.58%; for `CCN1CCN(c2cc3c(cc2F)c(=O)c(S(=O)(=O)c2ccccc2)cn3C)CC1`: inactive: -1.99%.
As for `Cc1[nH]c2ccccc2c1C1N2CC3(C)CN1CC(C)(C2)C3=O` (stereo not drawn), the activation is inactive: -4.55%.
The same measure for `Cc1cccc(CNC(=O)CSCc2cnn(-c3ccccc3)c2-n2cccc2)c1`: inactive: -22.8%; for `CCOC(=O)c1ccc(NS(=O)(=O)c2cc(-c3onc(C)c3C)ccc2C)cc1`: inactive: -3.14%; for `Cc1nn(C)c2c1c(C(F)(F)F)cc(=O)n2C(C)C(=O)NCc1ccc(Cl)cc1` (stereo not drawn): inactive: -3.82%.
As for `O=C(Nc1ccc(Br)cc1F)N1CCC(CN2CCCC2)CC1`, the figure is inactive: -7.15%; as for `O=S(=O)(O)CCS`, inactive: -9.49%; as for `CC1=C(C(=O)OCc2ccccc2)C(c2cccc(Cl)c2Cl)CC(=O)N1` (stereo not drawn), inactive: 46.2%.
The same measure for `COc1cc(OC)c(C2Nc3c(C)cccc3-c3cc(C)nn32)cc1OC` (stereo not drawn): inactive: 4.22%.
As to `CCN1C(=O)c2ccccc2S(=O)c2ccc(C(=O)N3CCN(c4cccc(C)c4)C(C)C3)cc21` (stereo not drawn), the activation is inactive: -3.71%.
As for `CC1=C(c2ccc(C)cc2)S(=O)(=O)NC1=NCc1cccc(F)c1`, the figure is inactive: -18.4%.
The same measure for `COC(=O)c1ccc(NC(=O)CC2C(=O)N(c3ccc(Cl)cc3)C(=O)N2Cc2ccco2)cc1` (stereo not drawn): inactive: -23.5%.
Regarding `Cn1c(-n2cccc2)c(-c2c(-c3ccccc3)[nH]c3c2c(=O)n(C)c(=O)n3C)c(=O)n(C)c1=O`, the activation was inactive: 8.22%.
The same measure for `CCCCOC(=O)c1ccc(NC(=O)CSc2nc3c(c(=O)[nH]2)CCCC3)cc1`: inactive: -9.45%.
As for `CCOc1ccccc1NC(=O)CN1C(=O)CC(c2ccc(OC)c(OC)c2)Sc2ccccc21` (stereo not drawn), the activation is inactive: -26%.
Take `Cc1ccc(-c2nnc(C3CCN(S(=O)(=O)c4ccc(C)c(C)c4)CC3)o2)cc1`: the activation was inactive: -3.09%.
As for `COc1ccc(NC(=O)CC2C(=O)N(c3ccc(F)cc3)C(=O)N2Cc2ccco2)cc1` (stereo not drawn), the figure is inactive: -4.57%.
As for `Cc1ccccc1CN1C(=O)c2ccccc2Sc2ccc(C(=O)NC(C)c3ccccc3)cc21` (stereo not drawn), the figure is inactive: -18.4%; as for `CCN1CCOC(=O)C1CC(=O)Nc1cc(C)cc(C)c1` (stereo not drawn), inactive: 22.4%; as for `CCCCCCCCCCC/C=C\C(C)(C)/C=C\CCCC(=O)O`, inactive: -11.2%.
The same measure for `Cc1cc(C)cc(NS(=O)(=O)c2ccc3[nH]cc(C(=O)N(C)Cc4ccccc4)c(=O)c3c2)c1`: inactive: -1.36%; for `O=C(NCc1ccc(F)cc1)c1cc2c(=O)n3ccccc3nc2s1`: inactive: 13.2%.
Regarding `Cc1ccc(CNC(=O)Cn2c(=O)n(-c3ccc(Cl)cc3)c(=O)c3c(C)c(C)sc32)cc1`, the activation is inactive: -7.32%.
As for `O=C(NCc1ccccc1)c1nn(-c2ccccc2)nc1CO`, the activation is inactive: -11.2%.
As for `COc1ccc(OC)c(/C=C(/C#N)c2nc(-c3ccc(-c4ccccc4)cc3)cs2)c1`, the figure is inactive: -27.1%; as for `Cc1ccc(N2C(=O)CCSC23C(=O)N(Cc2ccccc2)c2ccccc23)cc1F` (stereo not drawn), inactive: -33.2%.
As for `Cc1ccc(CSc2nc3c([nH]c4ccccc43)c(=O)n2C)cc1`, the figure is inactive: 4.39%; as for `Cc1c(-c2nc(-c3ccccc3)no2)nnn1-c1cccc(C(F)(F)F)c1`, inactive: -3.04%.
The same measure for `COC(=O)c1ccccc1NC(=O)c1ccc2c(c1)CCN2S(C)(=O)=O`: inactive: -12.4%.
Turning to `COc1cc(Nc2ncc3c(n2)CCN(Cc2cc(Br)cs2)C3)cc(OC)c1`, the activation was inactive: -1.23%.
`Cc1cc(Nc2ccc(F)cc2)n2c(nc3ccccc32)c1C#N`: the activation was inactive: 37.2%.
The same measure for `CCCCNc1nc2c(S(=O)(=O)c3ccc(C)c(C)c3)nnn2c2ccsc12`: inactive: -9.7%; for `Cc1nn2c(-c3ccco3)ccnc2c1-c1ccc(F)cc1`: inactive: -6.49%; for `COc1ccccc1CNC(=O)c1ccc2c(c1)nc(C)n2-c1ccccc1OC`: inactive: -0.527%.
The same measure for `COc1ccc(NC(=O)c2cccn2-c2nnc(N3CCCCC3)s2)cc1Cl`: inactive: -18.3%; for `COc1ccccc1NC(=O)CN1CCCN(S(=O)(=O)c2ccc(Br)cc2)CC1`: inactive: -38.7%; for `Cc1nc2ccccn2c(=O)c1NC(=O)c1ccc(C(F)(F)F)cc1`: inactive: -4.15%.
As for `CCOc1ccc(NC(=O)Cn2c(C)cc3ccccc3c2=O)cc1`, the figure is inactive: -6.55%.
In the case of `Cc1ccc(NC(=O)Cn2c(=O)n(CCCCC(=O)NCc3ccccc3Cl)c(=O)c3ccccc32)cc1C`, the activation is inactive: -5.63%.
As for `CCOc1ccccc1OCCN[C@H](C)Cc1ccc(OC)c(S(N)(=O)=O)c1`, the figure is inactive: 16%.
The same measure for `O=c1c2oc3ccccc3c2n(Cc2ccccc2Cl)c(=O)n1Cc1ccco1`: inactive: -13.2%; for `O=C(Nc1ccc2nc(SCC(=O)N3CCc4ccccc43)sc2c1)c1ccc(F)cc1`: inactive: -0.435%.
